Measurements from PubChem BioAssay AID504332 (National Center for Advancing Translational Sciences (NCATS), 2011).
In all, about 350,000 compounds went through this assay and about 31,000 (8.9%) were called active. The shares of active, inactive and inconclusive entries below differ from those in the screen. Calls come from the whole dose curve; as a rule, active = well fitted inhibition curve with a large enough effect; inconclusive = small, poorly fitted or top-dose-only effect; inactive = no such curve, though single readings can be large or run the other way. Where the call is inconclusive, the potency comes from a doubtful curve fit.

What follows are compounds tested against Histone-lysine N-methyltransferase EHMT2 (Homo sapiens) (UniProt Q96KQ7) (assay: qHTS Assay for Inhibitors of Histone Lysine Methyltransferase G9a). Conditions: G9a H3K9 monomethylation, AlphaScreen, 2 h; activity, negative = inhibition: at 59 µM (top of the series) unless noted.
UniProt Q96KQ7, sequence (Q96KQ7 whole entry, looked up): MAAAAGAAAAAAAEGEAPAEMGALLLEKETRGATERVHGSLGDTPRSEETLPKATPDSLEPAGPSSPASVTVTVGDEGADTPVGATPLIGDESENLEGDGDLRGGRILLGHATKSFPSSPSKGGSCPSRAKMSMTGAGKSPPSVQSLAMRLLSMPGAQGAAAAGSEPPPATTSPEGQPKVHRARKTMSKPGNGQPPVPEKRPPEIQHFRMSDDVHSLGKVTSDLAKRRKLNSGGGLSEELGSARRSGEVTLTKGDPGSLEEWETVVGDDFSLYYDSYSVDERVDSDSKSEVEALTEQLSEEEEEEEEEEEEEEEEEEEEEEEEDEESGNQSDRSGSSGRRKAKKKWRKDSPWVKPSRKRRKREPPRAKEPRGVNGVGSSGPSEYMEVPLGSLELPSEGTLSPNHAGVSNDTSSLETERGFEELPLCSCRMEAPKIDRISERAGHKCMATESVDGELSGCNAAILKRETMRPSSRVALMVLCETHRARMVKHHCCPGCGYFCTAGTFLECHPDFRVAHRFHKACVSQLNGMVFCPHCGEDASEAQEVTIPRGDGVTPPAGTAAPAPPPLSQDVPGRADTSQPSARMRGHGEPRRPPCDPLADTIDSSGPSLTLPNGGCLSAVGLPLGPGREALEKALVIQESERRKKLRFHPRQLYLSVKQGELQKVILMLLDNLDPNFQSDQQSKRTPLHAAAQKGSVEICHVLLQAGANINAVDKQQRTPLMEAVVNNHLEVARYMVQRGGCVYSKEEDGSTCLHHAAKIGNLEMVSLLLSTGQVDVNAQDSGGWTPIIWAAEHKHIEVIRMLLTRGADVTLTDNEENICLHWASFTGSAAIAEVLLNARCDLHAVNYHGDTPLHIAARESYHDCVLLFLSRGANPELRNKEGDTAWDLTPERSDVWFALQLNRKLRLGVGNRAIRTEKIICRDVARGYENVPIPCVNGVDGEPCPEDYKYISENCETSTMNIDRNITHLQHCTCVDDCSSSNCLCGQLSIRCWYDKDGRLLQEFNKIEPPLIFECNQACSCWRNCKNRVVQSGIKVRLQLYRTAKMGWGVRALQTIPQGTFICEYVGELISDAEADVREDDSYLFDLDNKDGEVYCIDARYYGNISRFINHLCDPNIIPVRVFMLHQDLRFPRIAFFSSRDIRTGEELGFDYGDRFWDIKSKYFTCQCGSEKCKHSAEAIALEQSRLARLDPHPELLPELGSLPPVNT
Procedure, shortened: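 G9a (20 nM) preincubated 15 min RT with compounds, then 500 nM biotinylated H3K9 peptide and 20 uM SAM added; 2 h RT reaction. Monomethyl-H3K9 product detected by AlphaScreen with anti-H3K9me1 antibody, streptavidin donor and anti-rabbit IgG acceptor beads.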
% is set by controls: 0 for no effect and ±100 for the full control effect; potency is the fitted concentration of half-maximal effect; tags give direction and shape of the fitted curve.
Note: nearly all actives have a fitted effect of over 75% in size.

Row | Compound | Potency | activity, negative = inhibition
1 | COc1ccc(/C=N/NC(=S)Nc2cccc(C(=O)O)c2)cc1OC | inconclusive: 100 µM [inhibitor, single point] | –
2 | Cc1ccc(-c2nc(S(=O)(=O)c3ccc(C)cc3)c(SCC(N)=O)o2)cc1 | active: 25.1 µM | –
3 | CC(C)OP(=O)(OC(C)C)C(Nc1ccc([N+](=O)[O-])cc1)c1cccc([N+](=O)[O-])c1 (configuration not stated) | inactive | –
4 | CCCC(c1nnnn1C(C)(C)CC)N(Cc1ccco1)Cc1cc2ccc(OC)cc2[nH]c1=O (configuration not stated) | – | inactive: -3.45% [at 12.7 µM]
5 | Cc1ccc2[nH]c(=O)c(C3C(C#N)=C(N)Oc4c3ccc3cccnc43)cc2c1 (configuration not stated) | inconclusive: 25.1 µM [inhibitor, single point] | –
6 | Cc1ccccc1NC(=S)N(CCN(C)C)C(C)c1ccco1 (configuration not stated) | inactive | –
7 | COc1ccc(/C=N/NC(=O)c2cccnc2)cc1Cn1nc([N+](=O)[O-])c(Br)c1C | active: 50.1 µM | –
8 | S=C(NCC1CCCO1)c1ccc(Br)cc1 (configuration not stated) | active: 8.91 µM | –
9 | O=C(COC(=O)c1ccc2ncsc2c1)NC(=O)c1ccccc1 | inconclusive: 56.2 µM [inhibitor, single point] | –
10 | O=C(NC1CCCCC1)C(c1ccccn1)N(C(=O)c1csnn1)c1ccccc1 (configuration not stated) | inactive | –
11 | Brc1ccc(CSc2nccn2-c2ccccc2)cc1 | active: 44.7 µM | –
12 | O=C(Oc1cccc(C(=S)N2CCOCC2)c1)c1cccc([N+](=O)[O-])c1 | active: 44.7 µM | –
13 | O=C(CSc1nc2ccccc2c(=O)n1-c1ccccc1F)NC1CCS(=O)(=O)C1 (configuration not stated) | – | inactive: -3.27% [at 2.33 µM]
14 | CCCC(=O)Nc1ccccc1NC(=O)c1ccc(OCC)cc1 | inactive | –
15 | Cc1c(NC(=O)C(C)OC(=O)c2cc(Cl)nc(Cl)c2)c(=O)n(-c2ccccc2)n1C (configuration not stated) | inactive | –
16 | COc1cc(-c2nc(SCC(=O)Nc3ccc4c(c3)OCO4)c(-c3ccccc3)[nH]2)cc(OC)c1OC | active: 11.2 µM | –
17 | CCOC(=O)C1(Cc2ccccc2)CCN(CC2CC=CCC2)CC1 (configuration not stated) | inconclusive: 50.1 µM [inhibitor, partial curve] | –
18 | Cc1cc(C(=O)O/N=C(\N)c2ccncc2)ccc1[N+](=O)[O-] | inconclusive: 8.91 µM [inhibitor, partial curve, poor fit] | –
19 | COc1cccc(C(=O)Nc2ccc(N3CCN(C(=O)c4cccs4)CC3)cc2)c1 | inconclusive: 44.7 µM [inhibitor, single point] | –
20 | COCCCNC(=O)C1CCN(Cc2cc3ccccc3n2Cc2cccc(C)c2)CC1 | inactive | –
21 | Cc1ccc(NC(=O)CN(C)C(=O)c2cn(Cc3ccccc3)nc2-c2cccnc2)cc1 | inconclusive: 89.1 µM [inhibitor, partial curve, poor fit] | –
22 | CCN(CCCNC(=O)CCNC(=O)Cn1ccc2ccccc2c1=O)c1ccccc1 | – | inconclusive: -72.1% [inhibitor]
23 | Cc1c(C(N)=O)sc(N)c1C(=O)OC(C)C | active: 39.8 µM | –

Row | Compound | Potency | activity, negative = inhibition
24 | Cc1ccc(-n2c(SCC(=O)O)nc3sc4c(c3c2=O)C(C)CCC4)cc1 (configuration not stated) | inactive | –
25 | O=[N+]([O-])c1ccc(-c2csc(NN=C3CCCC3)n2)cc1 | active: 50.1 µM | –
26 | CN1CCN(C(=O)CSc2cc(=O)n(C)c3ccccc23)CC1 | inconclusive: 44.7 µM [inhibitor, partial curve, poor fit] | –
27 | CCOc1ccc(N(Cc2ccccc2F)C2=NC3CS(=O)(=O)CC3S2)cc1 (configuration not stated) | inconclusive: 22.4 µM [inhibitor, full curve] | –
28 | c1ccc(CN2CCN(c3nc(-c4ccccc4)nc(-n4ccnc4)n3)CC2)cc1 | inconclusive: 39.8 µM [inhibitor, partial curve, poor fit] | –
29 | C/C(=N\OCC(=O)Nc1ccc2c(c1)OCCO2)c1ccc2c(c1)OCCO2 | inconclusive: 70.8 µM [inhibitor, single point] | –
30 | Cc1cc(C(=O)N/N=C/c2sc(N3CCOCC3)nc2-c2ccccc2)c(C)o1 | inconclusive: 15.8 µM [inhibitor, partial curve] | –
31 | Cc1cccc(NC(=O)c2sc3ncnc(N(C)C4CCCCC4)c3c2C)c1C | inactive | –
32 | Cc1ccc(C)c(NC(=O)C2=CCN(S(=O)(=O)c3ccc(F)cc3)CC2)c1 | inconclusive: 89.1 µM [inhibitor, single point] | –
33 | COc1ccc(OC)c(NC(=O)CCc2c[nH]c3ccccc23)c1 | inconclusive: 79.4 µM [inhibitor, single point] | –
34 | Cc1cc(C)c2c(c1)c(C)cc1nnc(SCC(=O)c3ccccc3)n12 | inconclusive: 10 µM [inhibitor, partial curve, poor fit] | –
35 | O=C(CSc1nccn1Cc1ccc(F)cc1)NCc1ccco1 | inactive | –
36 | COc1ccc(N2C(=O)NC(=O)C2=O)cc1 | inconclusive: 89.1 µM [inhibitor, single point] | –
37 | COc1cc2c(cc1OC)CN(C(C)C(=O)Nc1cccc(S(=O)(=O)N3CCOCC3)c1)CC2 (configuration not stated) | inconclusive: 100 µM [inhibitor, partial curve, poor fit] | –
38 | CCCN1Cc2cccc(C(=O)Nc3cc(Cl)ccc3C)c2C1=O | inactive | –
39 | CCOc1cccc2sc(N(CCCN(C)C)C(=O)c3ccc(S(=O)(=O)N(CC)Cc4ccccc4)cc3)nc12 | active: 39.8 µM | –
40 | Cc1ccc(CNC(=O)c2sc3ccc(S(=O)(=O)N4CCCCC4)cc3c2N)cc1 | active: 44.7 µM | –
41 | CCOc1cccc(/C(O)=C2/C(=O)C(=O)N(CCOC)C2c2ccncc2)c1 (configuration not stated) | inconclusive: 63.1 µM [inhibitor, partial curve, poor fit] | –
42 | Cc1ccccc1OCC(=O)Nc1ccccc1C(=O)N1CCCCC1 | inconclusive: 2.24 µM [inhibitor, partial curve, poor fit] | –
43 | COc1cccc(NC(=O)c2c(C)oc3nc(C)nc(N4CCCC4)c23)c1 | inconclusive: 28.2 µM [inhibitor, partial curve, poor fit] | –
44 | Clc1ccc(Cn2cc(/C=N/n3cnnc3)c3ccccc32)c(Cl)c1 | inconclusive: 50.1 µM [inhibitor, partial curve, poor fit] | –
45 | CCOC(=O)CC(=O)Nc1ccccc1C(=O)O | inconclusive: 89.1 µM [inhibitor, single point] | –
46 | COc1ccc(NS(=O)(=O)c2ccc(N3CCCC3)c(NC(=S)Nc3cccc(S(=O)(=O)N(C)C)c3)c2)cc1 | active: 1.58 µM | –

Row | Compound | Potency | activity, negative = inhibition
47 | COc1ccc(/C=N/NC(=O)c2ccco2)cc1COc1ccc(F)cc1 | inconclusive: 89.1 µM [inhibitor, single point] | –
48 | CC(=O)c1cccc(NC(=O)c2ccc3nc(Cc4ccccc4)oc3c2)c1 | inactive | –
49 | CC(=O)c1c(Cl)nc2cccc3c2c1-c1ccccc1C3=O | active: 28.2 µM | –
50 | CCOC(=O)c1cc[n+](CC(=O)c2ccc(F)cc2)cc1 | inconclusive: 0.708 µM [inhibitor, partial curve, poor fit] | –
51 | CN(C)c1ccc(-n2cccc2/C=N/n2cnnc2)cc1 | inconclusive: 39.8 µM [inhibitor, single point] | –
52 | COc1ccc(C(=O)N/C(=C\c2cn(C)c3ccccc23)C(=O)OCCN(C)C)cc1 | inconclusive: 89.1 µM [inhibitor, partial curve, poor fit] | –
53 | COC(=O)c1cc(Br)c(=O)n(Cc2cccnc2)c1 | inconclusive: 79.4 µM [inhibitor, single point] | –
54 | O=C(O)c1cccc(S(=O)(=O)Nc2ccc3oc(=O)sc3c2)c1 | inconclusive: 70.8 µM [inhibitor, partial curve, poor fit] | –
55 | COc1ccc(N2CCN(Cc3nc4c(c(=O)[nH]c(=O)n4C)n3CCCc3ccccc3)CC2)cc1 | inconclusive: 25.1 µM [inhibitor, single point] | –
56 | COc1ccc(N2CCN(Cc3nc4c(c(=O)[nH]c(=O)n4C)n3Cc3ccccc3C)CC2)cc1 | active: 28.2 µM | –
57 | Cc1ccc2c(COC(=O)c3ccccc3Br)cc(=O)oc2c1 | inconclusive: 79.4 µM [inhibitor, single point] | –
58 | N#CC(C#N)=C(Nc1ccc(F)cc1)SCc1cccc(Br)c1 | inconclusive: 39.8 µM [inhibitor, single point] | –
59 | O=C(O)c1ccccc1C(=O)NNc1ccc(F)cc1 | inconclusive: 1.26 µM [inhibitor, full curve, poor fit] | –
60 | CCOC(=O)/C=C/c1nc(C(=O)OCC)c(C)c(=O)[nH]1 | inconclusive: 50.1 µM [inhibitor, partial curve, poor fit] | –
61 | Cc1ccc(CSc2nnc(SCC(=O)N/N=C/C=C/c3ccco3)s2)cc1 | inconclusive: 39.8 µM [inhibitor, single point] | –
62 | Cc1ccc(C)c(NC(=O)CN(C)C(=O)C2CCCC2)c1 | inconclusive: 4.47 µM [inhibitor, partial curve, poor fit] | –
63 | Cc1cc(NC(=O)CSc2nnc(C3COc4ccccc4O3)o2)no1 (configuration not stated) | inconclusive: 70.8 µM [inhibitor, partial curve, poor fit] | –
64 | Cc1cc(NC(=O)c2noc3c2CCc2ccccc2-3)n(-c2ccccc2)n1 | inconclusive: 1.58 µM [inhibitor, full curve, poor fit] | –
65 | O=C(CSc1ncccc1C(=O)Oc1ccccc1Cl)Nc1ccc(C(F)(F)F)cc1Cl | inconclusive: 28.2 µM [inhibitor, single point] | –
66 | C/C(CCC(C)C)=N\Nc1cc(C)c2ccccc2n1 | inconclusive: 50.1 µM [inhibitor, partial curve, poor fit] | –
67 | COc1ccc(C2/C(=C(/O)c3ccccc3)C(=O)C(=O)N2CCN2CCOCC2)c(OC)c1 (configuration not stated) | inconclusive: 28.2 µM [inhibitor, single point] | –
